From the RNAGym collection of RNA variant scans (doi:10.7554/elife.90254)
Read counts are not given, so values of variants with three or more changes are uncertain.

B1: LINE1-mini (parent)
chain: GGCAGAGCUCAACACAGCGUGGCAAAGUGGCUGUGGCUAGACUGCC

Variants of: B1
Assay: self-cleavage, relative activity (ratio to wild type); higher = more cleavage; in vitro, sequencing; the parent is a self-cleaving ribozyme

Variant	self-cleavage
GGAAGAGCUCAACACAGCGUAGCAUACUGGCUGUGGCUAGACUGCC [C3A G21A A25U G27C]	0.59
GGAAGAGCUCAACACAGCGUCGCAAAAUGGCUGUGGCUAGACUGCC [C3A G21C G27A]	1.45
GGAAGAGCUCAACACAGCGUGGCAAAAUGGCUGUUGCUAAACUGCC [C3A G27A G35U G40A]	0.16
GGAAGAGCUCAACACAGCGUGCCAAAGUAGCUGUGGCUAGACUGCC [C3A G22C G29A]	0.56
GGAAGAGCUCAACACAGCUUGGCAAAGUGACUGUGGCUAGACUGCC [C3A G19U G30A]	0.1
GGAAGAGCACAACACAGCGUGGCAAAGUUGCUGUGGCUAGACUGCC [C3A U9A G29U]	0.28
GGAAGAGCACAACACAGCGUGGCAACGUGGCCGUGGCUAGACUGCC [C3A U9A A26C U32C]	0.44
GGAAGAGCUCAACACAGCGUCGCAAAGUAGCUGUGGCUAGACUGCC [C3A G21C G29A]	0.54
GGAAGAGCUCAACACAGCGUUGUAAAGUGGCUGUGGCUAGACUGCU [C3A G21U C23U C46U]	0.43
GGAAGAGCUCAACACAGCGUUGCAUAGUGGCUGUGGCUAAACUGCC [C3A G21U A25U G40A]	0.21
GGAAGAGCUCAACACAGCGUGAAAAAGAGGCUGUUGCUAGACUGCC [C3A G22A C23A U28A G35U]	0.42
GGAAGAGCUCAACACAGCGUGGCAAAGUGGCUGUGCCUAUACAGCC [C3A G36C G40U U43A]	0.1
GGAAGAGCUCAACACAGCGUGGCAAAGUGACUGUCGCUAGAGUGCC [C3A G30A G35C C42G]	0.08
GGAAGAGCUCAACACAACGUGGCAGAGUGGCUGUGGCUAGACUCCC [C3A G17A A25G G44C]	0.05
GGAAGAGCUCAACACAGCGUGGCAAAGUGGCUUUGGCUAGCCUGCC [C3A G33U A41C]	0.07
GGAAGAGCACAACACAGCGAGGCAAAGUGGCUGUGGAUAGAUUGCC [C3A U9A U20A C37A C42U]	0.3
GGAAGAGCUCAACACAGCGUGGCAAAUAGGCUGUGGCUAGACUGCC [C3A G27U U28A]	0.24
GGAAGAGCUCAACACAGCGUUGCAAAGUGGCUGUGGGUAUACUGCC [C3A G21U C37G G40U]	0.21
GGAAGAGCCCAGCACAGCGUGGCAAAGUGGCUGUGGCUAGACUGCC [C3A U9C A12G]	0.06

Variant	self-cleavage
GGAAGAGCUCAACACAGCGUGGCAAAGUGCCUGUGGCUAGACUCCC [C3A G30C G44C]	0.18
GGAAGAGCUCAACACAUCGUGGCAAAGUGGAUGUGCCUAGACUGCC [C3A G17U C31A G36C]	0.11
GGAAGAGCACAACACAGCGUGGUAAAGUGUCUGUGGCUAGACUGCC [C3A U9A C23U G30U]	0.33
GGAAGAGCUCAACACAGCGUUGCAAAGUCGCUGUGGCUGGACUGCC [C3A G21U G29C A39G]	0.18
GGAAGAGCUCAACACAGCGUGGCAAAUUGGCUGAGGCUAGACUGCC [C3A G27U U34A]	0.02
GGAAGAGCUCAACACACCGUGGCAAAGUGGCUGUGGCUAGACUUCC [C3A G17C G44U]	1.41
GGAAGAGCUCAACACAGCGUGGCAAAAUGGCUGUGGCUCGACUGCC [C3A G27A A39C]	0.03
GGAAGAGCUCAACACAGCGUGGCAAAGUGGCUGUUGCUAGUCUGCC [C3A G35U A41U]	0.16
GGAAGAUCUCAACACAGCGAGGCAAAGUGGCUGUGUCUAGACUGCC [C3A G7U U20A G36U]	0.08
GGAAGAGCUCAACACACGGUGGCUAAGUGGCUGUGGCUAGACUGCC [C3A G17C C18G A24U]	0.11
GGAAGAGCUCAACACAGCGUGCUAAAGUGGCUUUGGCUAGACUGCC [C3A G22C C23U G33U]	0.12
GGAAGAGCACAACACCGCGUGGCAAAGUGCCUGUGGUUAGACUGCC [C3A U9A A16C G30C C37U]	0.55
GGAAGAGCUCAACACAGCGUUUCAAAGUAGCUGUGGCGAGACUGUC [C3A G21U G22U G29A U38G C45U]	0.03
GGAAGAGCUCAACACAUGGUUGCAAAGUGGCUGUGGCUAGACUGCC [C3A G17U C18G G21U]	0.07
GGAAGAGCUCAACACAGCGUGGCAAAGUAGCUGUCGCUAGACUGCA [C3A G29A G35C C46A]	0.13
GGAAGAGCUCAACACAGCGUGGCAAAAUGACUGUGGCUAGACUGCC [C3A G27A G30A]	0.98
GGAAGAGCUCAACACACCGUGGCAAAGUGGCUUUGUCUAGACUGCC [C3A G17C G33U G36U]	0.1
GGAAGAGCUCAACACAUGGUGGCAAAGUGGCUGUGGCUAGACUGCC [C3A G17U C18G]	0.19
GGAAGAGCUCAACACAGCGUAGCUAAGUGACUAAGGCUAGACAGCC [C3A G21A A24U G30A G33A U34A U43A]	0.33

Variant	self-cleavage
GGAAGAGCUCAACACAGCGUUGCAAAGUGGCUGGGGCUAGACUGCC [C3A G21U U34G]	0.06
GGAAGAGCACAACACAGCGUGGCAAAGUGGCUGUGGCUAGACUGCA [C3A U9A C46A]	0.49
GGAAGAGCUCAACACAGCAUGGCAAAGUGGCUGCGGCUAGACUGCC [C3A G19A U34C]	0.27
GGAAGAGCUCAACACAUCUCGGCAAAGUGGCUGUGGCUAGACUGCC [C3A G17U G19U U20C]	0.08
GGAAGAGCUCAACACAGCGUGGCAAAUUGGAUGUGGCUAGACUGCC [C3A G27U C31A]	0.16
GGAAGAUCUCAACACAGCGUGGCAAAGUGCCUGUGGCUAGACUGCC [C3A G7U G30C]	0.35
GGAAGAGCCCAACACAGCGUAGCAAAGUGGCUGUGGCUAGACUGCC [C3A U9C G21A]	0.26
GGAAGAGCUCAACACAGCGUGGCAAAAUGGCUGUGGCUAGACAGCC [C3A G27A U43A]	0.62
GGAAGAGCUCAACACAACGUGGGAAAGUGGCUGUGGCUAGACUGCC [C3A G17A C23G]	0.29
GGAAGAGCUCAACACAGCGUGGCAAAUUGGCCGUGGCUAGACUGGC [C3A G27U U32C C45G]	0.1
GGAAGAGCUCAACACAGCGUUGCAAAGUGGUAGUGGCGAGACUGCC [C3A G21U C31U U32A U38G]	0.06
GGAAGAGCUCAACACAGCGUGGCAAAGUUGCUGGGGCUAGACUUCC [C3A G29U U34G G44U]	0.16
GGAAGAGCACAACACAGCGUGGCAAAGUGGCUGUGGCUAUACUUCC [C3A U9A G40U G44U]	0.09
GGAAGAGCUCAACACAGCUUGGCAAAGUGGCAGUGGCUAGACUGCC [C3A G19U U32A]	0.06
GGAAGAGCUCAACACACCGUGGCAAACUGGCUGUGGCUAAUCUGCC [C3A G17C G27C G40A A41U]	0.13
GGAAGAGCUCAACACACCUUGGCAAAGUGGCUGUUGCUGGACUGCC [C3A G17C G19U G35U A39G]	0.03
GGAAGAGCCCAAGACAGCGUGGCAAAGUGGCUGUGGUUAGACUGCC [C3A U9C C13G C37U]	0.05
GGAAGAGCUCAACACAGCCUGGCAAAGUGGCUGUGGCUAGACCGCC [C3A G19C U43C]	0.09
